Legend:
[1] = target: the molecule itself; assay: native MS; HspB1_(77–171) variants at 10 μM in 200 mM ammonium acetate pH 6.9, 10-fold molar excess DTT; dimer to monomers
[2] = target: the molecule itself; assay: crystal structure; HspB1_(84–170) 16 mg/ml with 5 mM peptide in PBS pH 7.0; 22% PEG 3350, 0.02 M sodium potassium diphosphate, 0.1 M bis-tris propane pH 7.5; 2.1 Å, space group P12_(1)1
[3] = target: T1, human FLNC domains 18 to 21 (FLNC_(d18–21)), EEF-tagged (human, UniProt Q14315 1943-2408); assay: co-sedimentation; HspB1 (WT or 3P) 80 μM with FLNC_(d18–21) 40 μM (2:1) in 200 mM ammonium acetate pH 6.9, 500 μM DTT, 25°C, 90 min; aliquots pelleted at 13,000g; SDS-PAGE densitometry of soluble and pelleted fractions; conditions: both partners purified
T1 construct: human filamin C, domains 18 to 21, residues 1943 to 2408 of UniProt Q14315; Modified pET23a/EEF vector; No cleavage of the tags is described; also called FLNC fragment; source: E. coli BL21(DE3) pLysS, purified (HisTrap, SEC Superdex 200); not shown: EEF, C-terminal, kept
T1 sequence (looked up): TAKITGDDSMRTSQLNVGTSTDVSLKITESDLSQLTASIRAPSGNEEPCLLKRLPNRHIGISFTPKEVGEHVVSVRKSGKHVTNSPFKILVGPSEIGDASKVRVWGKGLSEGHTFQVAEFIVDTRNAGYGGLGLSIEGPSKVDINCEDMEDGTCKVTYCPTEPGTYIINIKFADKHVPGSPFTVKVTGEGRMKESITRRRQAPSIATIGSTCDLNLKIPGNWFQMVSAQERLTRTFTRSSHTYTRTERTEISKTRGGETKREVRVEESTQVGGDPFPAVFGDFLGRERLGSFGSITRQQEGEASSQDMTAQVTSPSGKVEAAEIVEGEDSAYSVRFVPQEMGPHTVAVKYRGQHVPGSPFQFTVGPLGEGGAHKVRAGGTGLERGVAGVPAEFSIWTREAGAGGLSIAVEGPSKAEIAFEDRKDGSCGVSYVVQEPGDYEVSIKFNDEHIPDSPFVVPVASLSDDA

[4] = target: the molecule itself; assay: NMR (1H-15N HSQC spectra); 298 K, 14.1 T; 0.9 to 1 mM protein, 30 mM sodium phosphate, 2 mM EDTA pH 7.0; dimer

B1: ^2PHspB1_([…]) (phosphomimics of Ser78 and Ser82) (domain or fragment)
chain: not shown
notes: human HspB1, […], phosphomimics at Ser78 and Ser82; For NMR labelled with 15N or 13C,15N; also called 2P (^PSer^78-^PSer^82); not shown: His tag (from the HisTrap purification), N-terminal, cleaved
Q: Does B1 bind [1]?
A: binds

B2: HspB1_([…]), ACD construct for crystallography (domain or fragment)
chain: not shown
notes: human HspB1 ACD, […] (K171 deleted from the […] construct); Dimer in the crystal (four dimers in the asymmetric unit); The residual Gly-Ser overhang that the methods tell of 'both proteins' may also stand on this construct; also called HspB1 ACD
Q: Does B2 bind [2]?
A: binds

B3: ^3PHspB1, full-length human HspB1 triple phosphomimic (S15D, S78D, S82D) (natural protein)
chain: not shown
notes: human HspB1 (Hsp27), full length, with three phosphomimetic substitutions; source: E. coli BL21(DE3), purified (HisTrap, SUMO hydrolase, SEC Superdex 200); not shown: SUMO, N-terminal, cleaved; His6, N-terminal, cleaved
Q: Does B3 bind [3]?
A: binds

B4: human HspB1 α-crystallin domain, HspB1_([…]) (domain or fragment)
chain: not shown
notes: human HspB1 ACD, […]; pET28d(+) vector; The residual Gly-Ser overhang that the methods tell of 'both proteins' may also stand on this construct; also called HspB1 ACD
Q: Does B4 bind [4]?
A: binds

B5: HspB1_([…]), wild type (domain or fragment)
chain: not shown
notes: human HspB1, […] (principal phosphorylation region and ACD); Same vector (pET28d(+)) as the ACD construct; also called HspB1_([…]) WT; source: E. coli BL21(DE3), purified; not shown: His tag (from the HisTrap purification), N-terminal, cleaved
Q: Which “stoichiometry N” value [1] does the source give for B5 here?
A: 2

B6: HspB1_([…]) 1P (phosphomimic of Ser82) (domain or fragment)
chain: not shown
notes: human HspB1, […], one phosphomimic at Ser82; The legend names the site (Ser82); the methods give the phosphomimic mutation S82D; also called 1P (^PSer^82); not shown: His tag (from the HisTrap purification), N-terminal, cleaved
Q: Does B6 bind [1]?
A: binds
